Measurements published in publication PMC4336329 (PLoS ONE, 2015).
The campaign covered roughly 310,000 compounds. About 2,200 (0.71%) showed an effect of 50% or more. The effect is printed as a negative number. The list shows a part of the results. Where a SMILES comes first, the peptide text is derived from it. [ ]: non-standard residue; d: D form. The star is where a group is joined. ξ: configuration not given here. ξPhe(4-Me) = Cc1ccc(CC(N)C(=O)O)cc1; Bz = O=C(c1ccccc1)*

Molecular target: human ether-à-go-go-related gene (hERG) potassium channel (human, UniProt Q12809)
Sequence (Q12809 whole entry, looked up): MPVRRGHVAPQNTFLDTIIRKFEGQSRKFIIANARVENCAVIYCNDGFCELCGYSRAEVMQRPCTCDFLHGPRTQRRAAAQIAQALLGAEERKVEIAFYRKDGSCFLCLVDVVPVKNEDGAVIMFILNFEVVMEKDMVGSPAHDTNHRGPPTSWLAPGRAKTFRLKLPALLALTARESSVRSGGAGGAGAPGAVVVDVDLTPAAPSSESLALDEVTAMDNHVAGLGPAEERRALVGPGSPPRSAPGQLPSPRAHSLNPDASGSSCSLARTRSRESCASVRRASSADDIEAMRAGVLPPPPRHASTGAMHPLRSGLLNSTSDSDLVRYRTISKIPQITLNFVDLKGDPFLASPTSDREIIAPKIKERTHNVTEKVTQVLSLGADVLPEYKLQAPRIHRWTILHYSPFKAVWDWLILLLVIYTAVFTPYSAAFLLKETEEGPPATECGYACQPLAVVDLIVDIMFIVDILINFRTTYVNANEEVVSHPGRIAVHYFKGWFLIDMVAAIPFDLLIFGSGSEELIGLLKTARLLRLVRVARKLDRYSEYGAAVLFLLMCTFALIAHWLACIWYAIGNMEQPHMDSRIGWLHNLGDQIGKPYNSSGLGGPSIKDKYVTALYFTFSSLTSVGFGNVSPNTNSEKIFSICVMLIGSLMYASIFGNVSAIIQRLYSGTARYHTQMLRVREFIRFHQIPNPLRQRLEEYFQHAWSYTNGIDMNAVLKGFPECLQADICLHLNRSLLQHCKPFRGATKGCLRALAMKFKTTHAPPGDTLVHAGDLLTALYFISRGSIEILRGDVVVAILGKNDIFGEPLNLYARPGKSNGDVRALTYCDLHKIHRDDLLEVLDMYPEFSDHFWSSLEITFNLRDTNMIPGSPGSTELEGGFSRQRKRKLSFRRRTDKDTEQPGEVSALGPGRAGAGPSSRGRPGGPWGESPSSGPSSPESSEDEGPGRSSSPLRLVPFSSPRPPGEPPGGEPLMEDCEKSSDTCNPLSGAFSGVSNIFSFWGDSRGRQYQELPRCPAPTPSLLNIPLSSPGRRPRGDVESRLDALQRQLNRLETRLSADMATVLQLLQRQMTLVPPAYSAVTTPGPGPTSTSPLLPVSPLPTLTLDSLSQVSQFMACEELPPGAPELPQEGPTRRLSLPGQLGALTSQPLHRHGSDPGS
Assay: primary screen, population patch clamp on CHO cells stably expressing hERG

| SMILES | hERG current change (%, negative = inhibition) at 1uM [%] |
| --- | --- |
| C=CCNC(=O)c1ccccc1NC(=O)COc1ccccc1 | 7.77 |
| COc1cccc(Nc2nc(N)nc(CCl)n2)c1 | 10.8 |
| Nc1ccc(N2CCN(C(=O)c3cccs3)CC2)cc1 | 11.3 |
| O=C(NCCN1CCCCC1)/C(=C/c1ccco1)NC(=O)c1ccccc1 | -0.663 |
| CCOC(=O)C1CCN(C(=O)CCc2c(C)nc3c(-c4ccc(F)cc4)c(C)nn3c2C)CC1 | -32.2 |
| Cc1cc(C)cc(NC(=S)N2CCC(c3nc4ccccc4s3)CC2)c1 | 11 |
| O=C(CSCc1ccccc1)Nc1cc([N+](=O)[O-])ccc1F | 15.1 |
| Cl.NNC(N)=O | 6.55 |
| CCN(CC)CCNC(=O)Cn1nc(Cc2ccncc2)c2ccccc2c1=O | 5.65 |
| Cc1ccccc1SCC(=O)OCC(=O)N(C)c1c(N)n(Cc2ccccc2)c(=O)[nH]c1=O | 1.71 |
| CCOC(=O)c1c(C)[nH]c(C)c1S(=O)(=O)Nc1ccc(CN2CCCCC2)cc1 | 17.3 |
| CSc1cccc(CN2CCCC(C(=O)Nc3cccc(-n4cccn4)c3)C2)c1 (stereo not shown) | 4.66 |
| O=C(Nc1ccccc1)N1CCCN(c2ccc(C(F)(F)F)cn2)CC1 | -8.06 |
| O=C(COC(=O)c1cc(=O)[nH]c(=O)[nH]1)Nc1cccc(S(=O)(=O)N2CCOCC2)c1 | 6.94 |
| O=C(CN1C(=O)NC2(CCCCCC2)C1=O)N1CCN(c2ccccc2)CC1 | 12.3 |
| COc1ccc(CCCC(=O)N/N=C/c2ccc(C)cc2)cc1 | 11.7 |
| COc1ccccc1OCC(=O)N1CCN(C(=O)COc2ccccc2OC)CC1 | 9.19 |
| COCC(=O)N(Cc1ccccc1)c1ccccn1 | -3.95 |
| O=C(NC1CCCC1)C1C2C=CC(C2)C1C(=O)N1CCOCC1 (stereo not shown) | 3.68 |
| COC(=O)c1ccc(NC(=O)NS(=O)(=O)c2ccc(C)cc2)cc1 | 6.88 |
| O=C(NNC(=O)c1ccccc1Br)c1ccc(SCC2CCCO2)c([N+](=O)[O-])c1 (stereo not shown) | -0.748 |
| CC1CC1C(=O)OCC(=O)NCc1ccc(Cl)cc1 (stereo not shown) | 11.6 |

| SMILES | hERG current change (%, negative = inhibition) at 1uM [%] |
| --- | --- |
| O=C(Cn1cnc2c(oc3ccccc32)c1=O)N1CCCC1 | 12.5 |
| Cc1ccccc1/C=C/c1cc[n+](C)cc1.[I-] | 10.5 |
| Cc1ccc(-n2c(SCC(=O)N/N=C/c3ccc(C)s3)nnc2-c2ccccc2)cc1 | 7.01 |
| CCOC(=O)[C@H](CCc1ccccc1)N[C@@H](C)C(=O)N1CCC[C@H]1C(=O)O.O=C(O)/C=C\C(=O)O | 17.7 |
| COc1ccccc1N1CCN(Cc2cc(=O)c(OCC(=O)NC3CCCC3)co2)CC1 | -5.97 |
| CCOC(=O)N1CCN(C(=O)CN(C2CCCCC2)S(=O)(=O)c2c(C)cc(C)cc2C)CC1 | 6.09 |
| Cc1cc(N2CCCCC2)n2ncc(-c3ccccc3)c2n1 | 9.98 |
| Cc1ccc(-c2nnc(SCC(=O)CC(=O)Nc3ccccc3)n2-c2ccccc2)cc1 | -8.23 |
| CCOC(=O)C1CCCN(C(=O)c2sc3nc(-c4ccc(F)cc4)cn3c2C)C1 (stereo not shown) | -17.8 |
| COc1ccc2c(c1)C(=O)CC(c1ccccc1F)O2 (stereo not shown) | -5.78 |
| O=C(CCc1ccccc1)NC(=S)NCc1ccco1 | 2.67 |
| COc1ccc(CCNC(=O)c2ccccc2OCc2c(C)noc2C)cc1 | 0.113 |
| CCCCc1nc2cc(C(=O)N(C)C3CCOCC3)ccc2o1 | 12.3 |
| CN(Cc1ccccc1)c1ccc(S(=O)(=O)N2CCOCC2)cn1 | 6.19 |
| CCC(=O)c1c(NC)cc(C)oc1=O | -5.11 |
| COc1ccccc1C(=O)NNC(=O)c1ccccc1 | 9.59 |
| N/C(Cc1ccc(Cl)cc1Cl)=N\OC(=O)Cc1cccs1 | 2.98 |
| Cc1csc(=Nc2c(C)n(C)n(-c3ccccc3)c2=O)n1Cc1ccccc1 | -4.69 |
| Cc1ccc(SCc2ccc(C(=O)NCc3ccncc3)cc2)cc1 | -5.21 |
| O=C(NC1CCCCC1)C1CCN(S(=O)(=O)c2cccc3nsnc23)CC1 | 16.2 |
| CCOc1ccc(N2C(=O)C3C(c4ccccc4F)NN(C(=O)c4ccc(C)cc4)C3C2=O)cc1 (stereo not shown) | 5.89 |
| CCCc1[nH]c(=O)c(C#N)c2c1COC(C)(C)C2 | 17.4 |

| SMILES | hERG current change (%, negative = inhibition) at 1uM [%] |
| --- | --- |
| CN(c1ccc(C(=O)NCc2ccc3c(c2)OCO3)cc1)S(C)(=O)=O | -3.58 |
| OCCn1c(SCCOc2ccccc2F)nc2ccccc21 | 2.78 |
| Cc1onc(-c2ccccc2)c1CNC(=O)CN1C(=O)c2ccccc2C1=O | 11 |
| COc1ccc(CCNC(=O)c2ccc(CNS(=O)(=O)c3cc(C)ccc3C)cc2)cc1OC | -4.81 |
| C=CCn1c(CCC(O)CCCCC)n[nH]c1=S (stereo not shown) | 11.6 |
| C=CCn1c(CCNC(=O)c2cccs2)nnc1SCC(=O)c1ccc(Br)cc1 | -5.35 |
| CCc1cccc(C)c1NC(=S)NCc1ccc2[nH]c(C)cc2c1 | 11.4 |
| Cc1ccc(CC(NC(=O)c2ccccc2)C(=O)NCC(=O)O)cc1 (stereo not shown) (Bz-[ξPhe(4-Me)]-Gly-OH) | -2.48 |
| Cc1ccc(S(=O)(=O)N(C)CC(=O)Nc2nc3ccccc3s2)cc1 | -9.27 |
| COc1cc(NC(=O)CCC(=O)Nc2ccc3nc(N4CCOCC4)cc(C)c3c2)cc(OC)c1OC | 4.83 |
| COc1ccc(OC)c(C(C)NC(=S)Nc2ccc(S(=O)(=O)Nc3ncccn3)cc2)c1 (stereo not shown) | 9.37 |
| COc1ccc(C2N3CC4(C)CN2CC(C)(C3)C4=O)cc1OC (stereo not shown) | 1.56 |
| O=C(O)Cc1ccc(O)c(O)c1 | -1.89 |
| COc1cc(/C=C/C(=O)O)cc(S(=O)(=O)Nc2ccccc2Cl)c1OC | 6.2 |
| Cc1cc(C)c(S(=O)(=O)N2CCN=C2c2ccccc2)c(C)c1 | 6.65 |
| Cc1ccc(C)c(S(=O)(=O)NCCCn2ccnc2)c1 | 1.95 |
| CS(=O)(=O)N(CC(=O)N/N=C/c1cccc2c1OCCO2)c1ccccc1Br | 6.98 |
| Cn1c(=O)c2c(ncn2CC(=O)N2CCN(c3ccccc3)CC2)n(C)c1=O | 8.13 |
| Cc1ccc(CN(c2ccc(C(=O)NCc3ccccn3)cc2)S(C)(=O)=O)cc1 | 0.446 |
| CCOC(=O)c1csc(N/N=C2\CCCc3ccccc32)n1 | 9.49 |
| O=C(O)COc1ccc(Br)cc1/C=C1/SC(=O)N(CC(=O)N2CCCC2)C1=O | 11.5 |
| CC1CCCCC1NC(=O)COc1ccc(-n2cnnn2)cc1 (stereo not shown) | 1.26 |

| SMILES | hERG current change (%, negative = inhibition) at 1uM [%] |
| --- | --- |
| Cc1cc(C)cc(OCc2nc3ncc(Br)cc3[nH]2)c1.Cl | 13 |
| CC(=O)Cn1c(CN2CCN(C(=O)c3ccco3)CC2)nc2c1c(=O)n(C)c(=O)n2C | 16.9 |
| COc1ccc(CSCC(=O)Nc2ccccc2)cc1[N+](=O)[O-] | 9.15 |
| S=c1nc[nH]c2nc[nH]c12 | 15.1 |
| Cn1c(=O)oc2cc(S(=O)(=O)NC3CCCCCCC3)ccc21 | -5.78 |
| Cc1cc(C)cc(N(CC(=O)Nc2cccc(C)n2)S(=O)(=O)c2c(C)noc2C)c1 | -1.31 |
| O=C(NCCCN1CCN(CCCNC(=O)c2cc([N+](=O)[O-])ccc2Cl)CC1)c1cc([N+](=O)[O-])ccc1Cl | 2.67 |
| O=C(NCCc1ccc(Cl)cc1)C1CCCN1C(=O)NCc1ccccc1 (stereo not shown) | 8.15 |
| FC(F)(F)c1nnc2sc(-c3ccco3)nn12 | 13.2 |
| Cc1ccc(NC(=O)COC(=O)c2ccc(-n3cccn3)cc2)cc1C | 3.18 |
| COC1(OC)N=C(N)C2(C#N)C(c3ccccc3)NC(C)=CC12C#N (stereo not shown) | 4.43 |
| O=C(COC(=O)c1ccccc1OCc1ccccc1Cl)NC1CC1 | 5.78 |
| CCOC(=O)CNC(=O)CSc1nnc(-c2ccncc2)n1-c1ccc(Cl)cc1 | 4.07 |
| COCCNC(=O)CN(c1ccc(F)cc1)S(=O)(=O)c1ccc2c(c1)OCCO2 | 13.1 |
| O=C(c1cnn(C(=O)COc2ccc(Cl)cc2)c1)c1ccccc1O | 9.58 |
| Oc1ccc2c(c1)c1c3n2CCNC3CCC1 (stereo not shown) | 8.98 |
| Cc1ccc(-c2nn(-c3ccccc3)cc2C(=O)Nc2ccc(C(=O)O)cc2)cc1 | 11.1 |
| COc1cc(C(=O)O[C@H]2CC(C)=CC[C@@]3(C)CC[C@@](O)(C(C)C)[C@H]23)ccc1O | 6.56 |
| CCCc1cc(=O)[nH]c(SCc2cccc(C)c2)n1 | 19.1 |
| COc1cc(SC)ccc1C(=O)N(C)Cc1ccccc1 | -1.12 |
| COc1cccc(C(=O)NNC(=O)c2ccc(NS(=O)(=O)c3cccs3)cc2)c1OC | 3.81 |
| COC(=O)C1=C(C)Nc2nc3ccccc3n2C1c1cc(OC)c(OC)c(OC)c1 (stereo not shown) | 3.97 |
